# The other results are listed elsewhere or left out.
# B1: CwpV (Clostridium difficile), B6EFG6 (protein)
# chain: MKIPKKIAAMLTVTMIAGSSTAGIASAQTVATNLTGQERYETAVKISQDGWKNADEVVIVNDSSIADALSATPFAKAKNAPILLTSKDKLNDKTKAEIQRLKAKKVYLIGGTSVLSTNIEKEIKDLKISFERISGAERYQTSLELAKKLDAISDVKKIAVVNGEKGLADAVSVGAPAAQNNMPVILADSKNGTAVADKFIKDAGITQSYVVGGESSISEAVKNKLPNSTRLGGTDRNDTNAKVIKEFYKKTDLKNAYVTKDGMNKQDQLIDALAVGVLGAKNQSPVVLVGKNLSASQKSLVNSKSFDKITKVGGNGNETAFNEMKSLQEVKTVEAKTISELKSAIDKATANDVINFKPTSEVKEAFTIQTDKAVTVNLNGTYTKTVTINMPNGDVNNYAKVDDVVIDDVKDGTFVNYGKITNLKVNDKNGAKIENNSKGEIGSLTVASGASQVKVTNGGKITTVTNNSKGTTIDNKGTISSVKGDNSPTISGNSPSSNSSGGSSSSGGSSGGSSGGSSSSKVGQIKFSATDKQIKMASGDKTVDPSDNTYILKLTNGTVKDGDVKANVKVAGLPSGLDYTAVGNRSANTITITVSGTTSQSIQNDLNNVSVLVKAGAVSGTGATDSIANTTFEIKKYVAAPAVGQLTFDATDKQIKMASGDKTVDPSDDTYVLTLTKGTAKDGDIKANVEVTGLPSGLDYTAEGDSSANTITIPVSGTASPAVQTDLDNVSVLVKAGAVSETTATDSAANATFEVKKYVAPAVGQLTFDATDKQIKMASGDKTVDPSDDTYVLTLTKGTAKDGDIKANVEVTGLPSGLDYTAEGDSSANTITITVSGTASQAVQTDLDNVSVLVKAGAVSETTATDSAANATFEVKKYVAPAIGQLTFDATDKQIKMASGDKTVDPSDDTYVLTLTKGTAKDGDIKANVEVTGLPSGLDYTAEGDSSANTITITVSGTASQAVQTDLDNVSVLVKAGAVSETTATDSAANATFEVKKHASDPISTIGKISSGLSSLFNILK
# Legend:
# Experiment in all cases: glycan array binding signal (z-score within array); higher = stronger binding
# Conditions in all cases: glycan notation: IUPAC condensed, linker removed
# [1] = molecular target: Gal(a1-3)Gal(b1-4)[Fuc(a1-3)]GlcNAc
# How it was run: (§1)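 Negative Z-scores can be read as non-binding. The Z-score is calculated within each array and then averaged across arrays of one protein sequence at different concentrations or buffers and across linkers. Arrays, 3228 in all, were curated from the Consortium for Functional Glycomics database and kept only where the protein sequence was available.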
# [2] = molecular target: Gal(a1-3)Gal(b1-4)[Fuc(a1-3)]GlcNAc(b1-2)Man(a1-3)[Gal(a1-3)Gal(b1-4)[Fuc(a1-3)]GlcNAc(b1-2)Man(a1-6)]Man(b1-4)GlcNAc(b1-4)GlcNAc
# How it was run: as §1
# Gal(a1-3)GalNAc = molecular target: Gal(a1-3)GalNAc
# How it was run: as §1
# [3] = molecular target: Gal(a1-3)[Gal(a1-4)]Gal(b1-4)GlcNAc
# How it was run: as §1
# [4] = molecular target: Gal(a1-4)Gal(b1-3)GlcNAc(b1-2)Man(a1-3)[Gal(a1-4)Gal(b1-3)GlcNAc(b1-2)Man(a1-6)]Man(b1-4)GlcNAc(b1-4)GlcNAc
# How it was run: as §1
# Gal(a1-4)Gal(b1-4)Glc = molecular target: Gal(a1-4)Gal(b1-4)Glc
# How it was run: as §1
# Gal(a1-4)Gal(b1-4)GlcNAc = molecular target: Gal(a1-4)Gal(b1-4)GlcNAc
# How it was run: as §1
# [5] = molecular target: Gal(a1-4)Gal(b1-4)GlcNAc(b1-2)Man(a1-3)[Gal(a1-4)Gal(b1-4)GlcNAc(b1-2)Man(a1-6)]Man(b1-4)GlcNAc(b1-4)GlcNAc
# How it was run: as §1
# [6] = molecular target: Gal(a1-4)Gal(b1-4)GlcNAc(b1-3)Gal(b1-4)Glc
# How it was run: as §1
# Gal(a1-4)GlcNAc = molecular target: Gal(a1-4)GlcNAc
# How it was run: as §1
# Gal(a1-6)Glc = molecular target: Gal(a1-6)Glc
# How it was run: as §1
# Gal(b1-2)Gal = molecular target: Gal(b1-2)Gal
# How it was run: as §1
# Gal(b1-3)Gal = molecular target: Gal(b1-3)Gal
# How it was run: as §1
# Gal(b1-3)Gal(b1-4)GlcNAc = molecular target: Gal(b1-3)Gal(b1-4)GlcNAc
# How it was run: as §1
# [7] = molecular target: Gal(b1-3)Gal(b1-4)GlcNAc(b1-2)Man(a1-3)[Gal(b1-3)Gal(b1-4)GlcNAc(b1-2)Man(a1-6)]Man(b1-4)GlcNAc(b1-4)GlcNAc
# How it was run: as §1
# Gal(b1-3)GalNAc = molecular target: Gal(b1-3)GalNAc
# How it was run: as §1
# [8] = molecular target: Gal(b1-3)GalNAc(a1-3)[Fuc(a1-2)]Gal(b1-4)Glc
# How it was run: as §1
# [9] = molecular target: Gal(b1-3)GalNAc(a1-3)[Fuc(a1-2)]Gal(b1-4)GlcNAc
# How it was run: as §1
# [10] = molecular target: Gal(b1-3)GalNAc(b1-3)Gal(a1-4)Gal(b1-4)Glc
# How it was run: as §1
# [11] = molecular target: Gal(b1-3)GalNAc(b1-4)Gal(b1-4)Glc
# How it was run: as §1
# [12] = molecular target: Gal(b1-3)GalNAc(b1-4)[Neu5Ac(a2-3)]Gal(b1-4)Glc
# How it was run: as §1
# Gal(b1-3)GlcNAc = molecular target: Gal(b1-3)GlcNAc
# How it was run: as §1
# [13] = molecular target: Gal(b1-3)GlcNAc(a1-6)Gal(b1-4)GlcNAc
# How it was run: as §1
# [14] = molecular target: Gal(b1-3)GlcNAc(b1-2)Man(a1-3)[Gal(b1-3)GlcNAc(b1-2)Man(a1-6)]Man(b1-4)GlcNAc(b1-4)GlcNAc
# How it was run: as §1
# [15] = molecular target: Gal(b1-3)GlcNAc(b1-2)Man(a1-3)[Gal(b1-3)GlcNAc(b1-2)Man(a1-6)]Man(b1-4)GlcNAc(b1-4)[Fuc(a1-6)]GlcNAc
# How it was run: as §1
# [16] = molecular target: Gal(b1-3)GlcNAc(b1-2)[Gal(b1-3)GlcNAc(b1-6)]Man(a1-6)[Gal(b1-3)GlcNAc(b1-2)Man(a1-3)]Man(b1-4)GlcNAc(b1-4)GlcNAc
# How it was run: as §1
# [17] = molecular target: Gal(b1-3)GlcNAc(b1-3)Gal(b1-3)GlcNAc
# How it was run: as §1
# [18] = molecular target: Gal(b1-3)GlcNAc(b1-3)Gal(b1-4)Glc
# How it was run: as §1
# [19] = molecular target: Gal(b1-3)GlcNAc(b1-3)Gal(b1-4)GlcNAc
# How it was run: as §1
# [20] = molecular target: Gal(b1-3)GlcNAc(b1-3)Gal(b1-4)GlcNAc(b1-6)[Gal(b1-3)GlcNAc(b1-3)]Gal(b1-4)Glc
# How it was run: as §1
binder,measurement,setting,value
B1,glycan array binding signal (z-score),[1],-0.309
same,glycan array binding signal (z-score),[2],-0.297
same,glycan array binding signal (z-score),Gal(a1-3)GalNAc,-0.303
same,glycan array binding signal (z-score),[3],0.592
same,glycan array binding signal (z-score),[4],1.08
same,glycan array binding signal (z-score),Gal(a1-4)Gal(b1-4)Glc,-0.084
same,glycan array binding signal (z-score),Gal(a1-4)Gal(b1-4)GlcNAc,2.24
same,glycan array binding signal (z-score),[5],9.72
same,glycan array binding signal (z-score),[6],2.79
same,glycan array binding signal (z-score),Gal(a1-4)GlcNAc,-0.282
same,glycan array binding signal (z-score),Gal(a1-6)Glc,-0.279
same,glycan array binding signal (z-score),Gal(b1-2)Gal,-0.319
same,glycan array binding signal (z-score),Gal(b1-3)Gal,-0.305
same,glycan array binding signal (z-score),Gal(b1-3)Gal(b1-4)GlcNAc,-0.025
same,glycan array binding signal (z-score),[7],-0.151
same,glycan array binding signal (z-score),Gal(b1-3)GalNAc,-0.3
same,glycan array binding signal (z-score),[8],-0.16
same,glycan array binding signal (z-score),[9],-0.248
same,glycan array binding signal (z-score),[10],1.95
same,glycan array binding signal (z-score),[11],-0.063
same,glycan array binding signal (z-score),[12],-0.331
same,glycan array binding signal (z-score),Gal(b1-3)GlcNAc,-0.271
same,glycan array binding signal (z-score),[13],-0.294
same,glycan array binding signal (z-score),[14],-0.308
same,glycan array binding signal (z-score),[15],0.023
same,glycan array binding signal (z-score),[16],0.182
same,glycan array binding signal (z-score),[17],-0.249
same,glycan array binding signal (z-score),[18],-0.342
same,glycan array binding signal (z-score),[19],0.622
same,glycan array binding signal (z-score),[20],-0.255

# Reference: the supplement of paper PMC8728848
